# Article PMC12820563, “FoxP3 forms a head-to-head dimer in vivo and stabilizes its multimerization on adjacent microsatellites”
# The other results are listed elsewhere or left out.
# Molecular target: T1, MBP-FoxP1dN (Mus musculus, UniProt P58462 326-579)
# T1 sequence: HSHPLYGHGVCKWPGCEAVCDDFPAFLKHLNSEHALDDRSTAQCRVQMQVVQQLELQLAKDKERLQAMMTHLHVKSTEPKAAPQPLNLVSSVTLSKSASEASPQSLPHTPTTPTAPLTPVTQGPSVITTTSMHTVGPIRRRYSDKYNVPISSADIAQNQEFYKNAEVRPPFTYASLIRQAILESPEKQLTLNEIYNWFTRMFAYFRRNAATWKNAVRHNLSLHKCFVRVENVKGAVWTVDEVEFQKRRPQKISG
# Assay: PD-seq (MBP pull-down with sequencing); 20 mM Tris-HCl pH 7.5, 100 mM NaCl, 1.5 mM MgCl2, 0.4 uM protein, 0.1 uM dsDNA library, 30 min, room temperature, amylose pull-down; high values mean tight binding
# Settings: protein: recombinant; tags: His6-MBP; chain copies: 2; dsDNA, one strand shown
# Procedure, shortened: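 Mouse FoxP3 or FoxP1 fragment lacking the N-terminus, His6-MBP-tagged and expressed in E. coli, was incubated at 0.4 µM with 0.1 µM Klenow-filled degenerate double-stranded DNA library for 30 min at room temperature in Tris pH 7.5 buffer with NaCl and MgCl2. Complexes captured on amylose resin were washed three times and their DNA sequenced on Illumina. Binding is reads-per-million enrichment of pull-down over input, replicates pooled.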
row,Sequence,binding signal
1,GATGATTGTTCTCCCAGCTGATGAATTTCATCAGTCGAGTAAACAAATTTTCCTAATCTTTCTGTTCAAGCGCCATCTAC,0.833 RPM ratio (pull-down/input)
2,GATGATTGTTCTCCCAGCTGATGAATTAACCCCTTCGAGTAAACAAATTTTCCTAATCTTTCTGTTCAAGCGCCATCTAC,0.932 RPM ratio (pull-down/input)
3,GATGATTGTTCTCCCAGCTGATGAATTCCGGAGGTCGAGTAAACAAATTTTCCTAATCTTTCTGTTCAAGCGCCATCTAC,0.779 RPM ratio (pull-down/input)
4,GATGATTGTTCTCCCAGCTGATGAATTCTTCTCCTCGAGTAAACAAATTTTCCTAATCTTTCTGTTCAAGCGCCATCTAC,0.815 RPM ratio (pull-down/input)
5,GATGATTGTTCTCCCAGCTGATGAATTCCGCCAATCGAGTAAACAAATTTTCCTAATCTTTCTGTTCAAGCGCCATCTAC,0.869 RPM ratio (pull-down/input)
6,GATGATTGTTCTCCCAGCTGATGAATTGGGCGTTTCGAGTAAACAAATTTTCCTAATCTTTCTGTTCAAGCGCCATCTAC,0.864 RPM ratio (pull-down/input)
7,GATGATTGTTCTCCCAGCTGATGAATTGCAACCATCGAGTAAACAAATTTTCCTAATCTTTCTGTTCAAGCGCCATCTAC,1.45 RPM ratio (pull-down/input)
8,GATGATTGTTCTCCCAGCTGATGAATTTCAGACGTCGAGTAAACAAATTTTCCTAATCTTTCTGTTCAAGCGCCATCTAC,0.832 RPM ratio (pull-down/input)
9,GATGATTGTTCTCCCAGCTGATGAATTACCTCCTTCGAGTAAACAAATTTTCCTAATCTTTCTGTTCAAGCGCCATCTAC,0.955 RPM ratio (pull-down/input)
10,GATGATTGTTCTCCCAGCTGATGAATTGGACTTATCGAGTAAACAAATTTTCCTAATCTTTCTGTTCAAGCGCCATCTAC,0.864 RPM ratio (pull-down/input)
11,GATGATTGTTCTCCCAGCTGATGAATTGGATTAATCGAGTAAACAAATTTTCCTAATCTTTCTGTTCAAGCGCCATCTAC,0.97 RPM ratio (pull-down/input)
12,GATGATTGTTCTCCCAGCTGATGAATTCCACTTTTCGAGTAAACAAATTTTCCTAATCTTTCTGTTCAAGCGCCATCTAC,0.903 RPM ratio (pull-down/input)
13,GATGATTGTTCTCCCAGCTGATGAATTTCTCCGCTCGAGTAAACAAATTTTCCTAATCTTTCTGTTCAAGCGCCATCTAC,0.834 RPM ratio (pull-down/input)
14,GATGATTGTTCTCCCAGCTGATGAATTTGTTCGTTCGAGTAAACAAATTTTCCTAATCTTTCTGTTCAAGCGCCATCTAC,1.12 RPM ratio (pull-down/input)
15,GATGATTGTTCTCCCAGCTGATGAATTATGTCGATCGAGTAAACAAATTTTCCTAATCTTTCTGTTCAAGCGCCATCTAC,1.01 RPM ratio (pull-down/input)
16,GATGATTGTTCTCCCAGCTGATGAATTCTGGAGATCGAGTAAACAAATTTTCCTAATCTTTCTGTTCAAGCGCCATCTAC,0.812 RPM ratio (pull-down/input)

row,Sequence,binding signal
1,GATGATTGTTCTCCCAGCTGATGAATTCGACATCTCGAGTAAACAAATTTTCCTAATCTTTCTGTTCAAGCGCCATCTAC,0.877 RPM ratio (pull-down/input)
2,GATGATTGTTCTCCCAGCTGATGAATTGTGTCGCTCGAGTAAACAAATTTTCCTAATCTTTCTGTTCAAGCGCCATCTAC,1.08 RPM ratio (pull-down/input)
3,GATGATTGTTCTCCCAGCTGATGAATTCGGGCAATCGAGTAAACAAATTTTCCTAATCTTTCTGTTCAAGCGCCATCTAC,1.01 RPM ratio (pull-down/input)
4,GATGATTGTTCTCCCAGCTGATGAATTTGTTAATTCGAGTAAACAAATTTTCCTAATCTTTCTGTTCAAGCGCCATCTAC,1.38 RPM ratio (pull-down/input)
5,GATGATTGTTCTCCCAGCTGATGAATTTCAACTCTCGAGTAAACAAATTTTCCTAATCTTTCTGTTCAAGCGCCATCTAC,0.737 RPM ratio (pull-down/input)
6,GATGATTGTTCTCCCAGCTGATGAATTAAACCCATCGAGTAAACAAATTTTCCTAATCTTTCTGTTCAAGCGCCATCTAC,1.02 RPM ratio (pull-down/input)
7,GATGATTGTTCTCCCAGCTGATGAATTTTGCAGTTCGAGTAAACAAATTTTCCTAATCTTTCTGTTCAAGCGCCATCTAC,0.964 RPM ratio (pull-down/input)
8,GATGATTGTTCTCCCAGCTGATGAATTCATAGGTTCGAGTAAACAAATTTTCCTAATCTTTCTGTTCAAGCGCCATCTAC,0.826 RPM ratio (pull-down/input)
9,GATGATTGTTCTCCCAGCTGATGAATTCAAGCTTTCGAGTAAACAAATTTTCCTAATCTTTCTGTTCAAGCGCCATCTAC,0.905 RPM ratio (pull-down/input)
10,GATGATTGTTCTCCCAGCTGATGAATTTCATTTCTCGAGTAAACAAATTTTCCTAATCTTTCTGTTCAAGCGCCATCTAC,0.901 RPM ratio (pull-down/input)
11,GATGATTGTTCTCCCAGCTGATGAATTGCGGGTGTCGAGTAAACAAATTTTCCTAATCTTTCTGTTCAAGCGCCATCTAC,0.984 RPM ratio (pull-down/input)
12,GATGATTGTTCTCCCAGCTGATGAATTAGGCGTCTCGAGTAAACAAATTTTCCTAATCTTTCTGTTCAAGCGCCATCTAC,0.865 RPM ratio (pull-down/input)
13,GATGATTGTTCTCCCAGCTGATGAATTTTGGTGCTCGAGTAAACAAATTTTCCTAATCTTTCTGTTCAAGCGCCATCTAC,0.883 RPM ratio (pull-down/input)
14,GATGATTGTTCTCCCAGCTGATGAATTTCTCGAATCGAGTAAACAAATTTTCCTAATCTTTCTGTTCAAGCGCCATCTAC,0.934 RPM ratio (pull-down/input)
15,GATGATTGTTCTCCCAGCTGATGAATTATTATAGTCGAGTAAACAAATTTTCCTAATCTTTCTGTTCAAGCGCCATCTAC,1.17 RPM ratio (pull-down/input)
